Assay results from patent publication US20260234246A1 (CAEDO ONCOLOGY, published 2026).

Biological target: T1, recombinant CD47 (recCD47), SinoBiological 12283-H27H-B, biotinylated (human, UniProt Q08722 partial chain, biotinylated (AVI-tag))
T1 construct: Bought protein, 17 kDa; At 17 kDa it can only be a part of it; also called recombinant biotinylated CD47; not shown: C-terminal His- and AVI-tag
Test: SPR Biacore S200, single-cycle, recCD47 on SA chip 100 RU, CO-1bi as analyte, 25 C, 1:1 model

T1 sequence (Q08722 19-139 limits assumed): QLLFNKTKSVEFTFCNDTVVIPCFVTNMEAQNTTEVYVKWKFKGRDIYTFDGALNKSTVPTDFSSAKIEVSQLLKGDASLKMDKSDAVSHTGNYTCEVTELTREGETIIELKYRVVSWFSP

B1: CO201-scFv-Fc-bi (bivalent scFv-Fc fusion protein of CO201 with IgG4 Fc) (Fc fusion)
chain: QVQLVQSGSELKKPGASVKVSCKASGYTFTNFGMHWVRQAPGQGLEWMGWINTYTGEPTYTDDFKGRFVFSLDTSVSTAYLQISSLKAEDTAVYYCARGDYRYGDSWGQGTTVTVSSGGGGSGGGGSGGGGSDIVMTQTPLSLSVTPGQPASISCRSSQSLVHSNGKTYLHWYLQKPGQPPQLLIYRVSNRFSGVPDRFSGSGSGTDFTLKISRVEAEDVGVYYCSQSTHVPFTFGQGTKLEIKSKYGPP[in this place human IgG4 Fc]
notes: One chain = CO201 scFv (VH - GS linker - VL) - hinge - CH2 - CH3; the chains dimerise through the Fc to a bivalent molecule (103.5 kDa); also called CO-1bi; CO-1 bi
In the case of B1, the Kd is reported as 40 pM, the koff is reported as 0.00019 s⁻¹ and the kon is reported as 4.9e+06 M⁻¹ s⁻¹.
